For at least one compound, name, drawing or mass did not settle the structure.
Molecular target: T1, histone deacetylase activity (HeLa nuclear extract)
T1 construct: Histone deacetylase activity from crude nuclear extract derived from HeLa cells was used for screening
Test: Histone deacetylase activity (Biomol Fluor de Lys HDAC fluorescent activity assay)
Type: biochemical
Details: Fluor de Lys substrate
Experimental: The ability of compounds to inhibit histone deacetylase activities was measured using the commercially available HDAC fluorescent activity assay from Biomol. In brief, the Fluor de Lys™ substrate, a lysine with an epsilon-amino acetylation, is incubated with the source of histone deacetylase activity (HeLa nuclear extract) in the presence or absence of inhibitor. Deacetylation of the substrate sensitises the substrate to Fluor de Lys™ developer, which generates a fluorophore. Thus, incubation of the substrate with a source of HDAC activity results in an increase in signal that is diminished in the presence of an HDAC inhibitor.
Data are expressed as a percentage of the control, measured in the absence of inhibitor, with background signal being subtracted from all samples, as follows: % activity=[(S^i−B)/(S^o−B)]×100 where S^i is the signal in the presence of substrate, enzyme and inhibitor, S^o is the signal in the presence of substrate, enzyme and the vehicle in which the inhibitor is dissolved, and B is the background signal measured in the absence of enzyme.
IC50 values were determined by non-linear regression analysis, after fitting the results of eight data points to the equation for sigmoidal dose response with variable slope (% activity against log concentration of Compound), using Graphpad Prism software.
Histone deacetylase activity from crude nuclear extract derived from HeLa cells was used for screening. The preparation, purchased from 4C (Seneffe, Belgium), was prepared from HeLa cells harvested whilst in exponential growth phase. The nuclear extract was prepared according to the methodology described by J. D. Dignam, Nucl. Acid. Res., 1983, 11, 1475-1489, snap frozen in liquid nitrogen and stored at −80° C. The final buffer composition was 20 mM Hepes, 100 mM KCl, 0.2 mM EDTA, 0.5 mM DTT, 0.2 mM PMSF and 20% (v/v) glycerol.

## O=C(NO)c1cnc(N2CCC(N[C@@H](CO)C(=O)OC3CCCC3)CC2)nc1 [Example 9]
  IC50: 101 to 1000 nM

## CC(C)(C)OCC(NCC1C2CN(c3ncc(C(=O)NO)cn3)CC12)C(=O)OC1CCCC1 (stereo not drawn) [Example 12]
  IC50: < 100 nM

## CC(C)(C)OCC(NCC1C2CN(c3ncc(C(=O)NO)cn3)CC12)C(=O)O (stereo not drawn) [Example 13]
  IC50: 101 to 1000 nM

## CC(C)C[C@H](NCC1CCN(c2ncc(C(=O)NO)cn2)CC1)C(=O)OC1CCCC1 [Example 16]
  IC50: < 100 nM

## CC(C)C[C@H](NCC1CCN(c2ncc(C(=O)NO)cn2)CC1)C(=O)O [Example 17]
  IC50: 101 to 1000 nM

## O=C(NO)c1cnc(N2CCC(CN[C@H](C(=O)OC3CCCC3)c3ccccc3)CC2)nc1 [Example 20]
  IC50: < 100 nM

## O=C(NO)c1cnc(N2CCC(CN[C@H](C(=O)O)c3ccccc3)CC2)nc1 [Example 21]
  IC50: < 100 nM

## CC(C)(C)OC[C@H](NCC1CCN(c2ncc(C(=O)NO)cn2)CC1)C(=O)OC1CCCC1 [Example 22]
  IC50: < 100 nM

## CC(C)(C)OC[C@H](NCC1CCN(c2ncc(C(=O)NO)cn2)CC1)C(=O)O [Example 23]
  IC50: 101 to 1000 nM

## O=C(NO)c1cnc(N2CCC(CN[C@@H](CO)C(=O)OC3CCCC3)CC2)nc1 [Example 24]
  IC50: < 100 nM

## O=C(NO)c1cnc(N2CCC(CN[C@@H](CO)C(=O)O)CC2)nc1 [Example 25]
  IC50: 101 to 1000 nM

## O=C(NO)c1cnc(N2CCC(CN[C@H](C(=O)OC3CCCC3)c3cccc4ccccc34)CC2)nc1 [Example 26]
  IC50: 101 to 1000 nM

## CC(C)C[C@H](NCc1ccc(CNCC2CCN(c3ncc(C(=O)NO)cn3)CC2)cc1)C(=O)OC1CCCC1 [Example 36]
  IC50: < 100 nM

## CC(C)C[C@H](NCc1ccc(CNCC2CCN(c3ncc(C(=O)NO)cn3)CC2)cc1)C(=O)O [Example 37]
  IC50: < 100 nM

## CC(C)(C)OC[C@H](NCc1ccc(CNCC2CCN(c3ncc(C(=O)NO)cn3)CC2)cc1)C(=O)OC1CCCC1 [Example 40]
  IC50: < 100 nM

## CC(C)(C)OC[C@H](NCc1ccc(CNCC2CCN(c3ncc(C(=O)NO)cn3)CC2)cc1)C(=O)O [Example 41]
  IC50: < 100 nM

## O=C(NO)c1cnc(N2CCC(CNCc3ccc(CN[C@H](C(=O)OC4CCCC4)c4ccccc4)cc3)CC2)nc1 [Example 42]
  IC50: < 100 nM

## O=C(NO)c1cnc(N2CCC(CNCc3ccc(CN[C@H](C(=O)O)c4ccccc4)cc3)CC2)nc1 [Example 43]
  IC50: < 100 nM

## O=C(NO)c1cnc(N2CCC(CNCc3ccc(CN[C@@H](CO)C(=O)OC4CCCC4)cc3)CC2)nc1 [Example 44]
  IC50: < 100 nM

## O=C(NO)c1cnc(N2CCC(CNCc3ccc(CN[C@@H](CO)C(=O)O)cc3)CC2)nc1 [Example 45]
  IC50: < 100 nM

## O=C(NO)c1ccc(N2CCC(CNCc3ccc(CN[C@H](C(=O)O)C4CCCCC4)cc3)CC2)cc1 [Example 53, {(2S)-2-cyclohexyl-2-[(4-{[({1-[4-(hydroxycarbamoyl)phenyl]piperidin-4-yl}methyl)amino]methyl}benzyl)amino]acetyl}oxy]
  IC50: > 1000 nM
